Results reported in the supplement of paper PMC9151546.
Single values are uncertain, as repeats are few or missing.

Columns and labels:
CHO-K1 [1] = assay: hypodiploid nuclei frequency (% of nucleated events); higher = more hypodiploid events (aneugenic)
Method: (§1)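 Flow-cytometric in vitro micronucleus assay (Litron MicroFlow) in CHO-K1 cells in 96-well plates, 19 concentrations (4.5-200 µM, n=1 per concentration). Without S9, cells were exposed for 24 h and sampled at 48 h. With Aroclor 1254-induced rat liver S9, cells were exposed for 3-4 h and sampled at 27-28 h. Read-outs are %MN and %hypodiploid nuclei relative to nucleated events, and relative survival as the nuclei-to-bead ratio versus the 1% DMSO vehicle control (x100).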

CHO-K1 [2] = assay: micronucleus frequency (% of nucleated events); higher = more micronuclei (genotoxic)
CHO-K1 [3] = assay: relative survival (nuclei to bead ratio vs DMSO control) (% of vehicle control); higher = more surviving cells
Method: as §1
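Wherever hypodiploid nuclei frequency (% of nucleated events) is given: hypodiploid nuclei gated on a flow cytometer with 488 nm excitation after SYTOX Green staining, cultures at 37 °C, positive controls vinblastine without S9 and cyclophosphamide with S9.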
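Wherever micronucleus frequency (% of nucleated events) is given: cells lysed with nuclei stained by SYTOX Green, then micronucleus-gated events counted against nucleated events by flow cytometry with 488 nm excitation.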
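Wherever relative survival (nuclei to bead ratio vs DMSO control) is given: Lysed-cell nuclei stained with SYTOX Green and counted against counting beads by flow cytometry at 488 nm excitation, with vinblastine (no S9) and cyclophosphamide (plus S9) as positive controls.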

O=[N+]([O-])C(Br)(CO)CO [Bronopol]
Details | hypodiploid nuclei frequency, CHO-K1 [1] [%] | micronucleus frequency, CHO-K1 [2] [%] | relative survival, CHO-K1 [3]
concentration: 4.5 (µM), S9 metabolic activation: with S9, exposure time: 3-4 hours | 0.08 | 0.6 | 65.5
concentration: 4.5 (µM), S9 metabolic activation: without S9, exposure time: 24 hours | 0.36 | 2.24 | 117
concentration: 5.63 (µM), S9 metabolic activation: with S9, exposure time: 3-4 hours | 0.2 | 0.76 | 83.4
concentration: 5.63 (µM), S9 metabolic activation: without S9, exposure time: 24 hours | 0.42 | 1.88 | 128
concentration: 7.04 (µM), S9 metabolic activation: with S9, exposure time: 3-4 hours | 0.16 | 0.56 | 66.3
concentration: 7.04 (µM), S9 metabolic activation: without S9, exposure time: 24 hours | 0.32 | 1.48 | 119
concentration: 8.8 (µM), S9 metabolic activation: with S9, exposure time: 3-4 hours | 0.22 | 0.96 | 74.3
concentration: 8.8 (µM), S9 metabolic activation: without S9, exposure time: 24 hours | 0.62 | 1.62 | 132
concentration: 11 (µM), S9 metabolic activation: with S9, exposure time: 3-4 hours | 0.3 | 1.06 | 68.7
concentration: 11 (µM), S9 metabolic activation: without S9, exposure time: 24 hours | 0.48 | 1.82 | 121
concentration: 13.7 (µM), S9 metabolic activation: with S9, exposure time: 3-4 hours | 0.22 | 0.7 | 84.2
concentration: 13.7 (µM), S9 metabolic activation: without S9, exposure time: 24 hours | 0.52 | 1.54 | 119
concentration: 17.2 (µM), S9 metabolic activation: with S9, exposure time: 3-4 hours | 0.17 | 1.09 | 82
concentration: 17.2 (µM), S9 metabolic activation: without S9, exposure time: 24 hours | 0.62 | 1.46 | 119
concentration: 21.5 (µM), S9 metabolic activation: with S9, exposure time: 3-4 hours | 0.24 | 1.01 | 71
concentration: 21.5 (µM), S9 metabolic activation: without S9, exposure time: 24 hours | 0.56 | 1.64 | 132
concentration: 26.8 (µM), S9 metabolic activation: with S9, exposure time: 3-4 hours | 0.18 | 1.11 | 57.2
concentration: 26.8 (µM), S9 metabolic activation: without S9, exposure time: 24 hours | 0.34 | 1.06 | 113
concentration: 33.6 (µM), S9 metabolic activation: with S9, exposure time: 3-4 hours | 0.27 | 1.3 | 55.8
concentration: 33.6 (µM), S9 metabolic activation: without S9, exposure time: 24 hours | 0.56 | 1.52 | 124
concentration: 41.9 (µM), S9 metabolic activation: with S9, exposure time: 3-4 hours | 0.33 | 1.71 | 50.4
concentration: 41.9 (µM), S9 metabolic activation: without S9, exposure time: 24 hours | 0.68 | 2.02 | 110
concentration: 52.4 (µM), S9 metabolic activation: with S9, exposure time: 3-4 hours | – | – | 22.1
concentration: 52.4 (µM), S9 metabolic activation: without S9, exposure time: 24 hours | 0.72 | 4.04 | 62.9
concentration: 65.5 (µM), S9 metabolic activation: with S9, exposure time: 3-4 hours | – | – | 13.6
concentration: 65.5 (µM), S9 metabolic activation: without S9, exposure time: 24 hours | – | – | 25.3
concentration: 81.9 (µM), S9 metabolic activation: with S9, exposure time: 3-4 hours | – | – | 1.24
concentration: 81.9 (µM), S9 metabolic activation: without S9, exposure time: 24 hours | – | – | 2.1
concentration: 200 (µM), S9 metabolic activation: with S9, exposure time: 3-4 hours | – | – | 0.02

CS(=O)(=O)OCCCCOS(C)(=O)=O [Busulfan]
Details | hypodiploid nuclei frequency, CHO-K1 [1] [%] | micronucleus frequency, CHO-K1 [2] [%] | relative survival, CHO-K1 [3]
concentration: 4.5 (µM), S9 metabolic activation: with S9, exposure time: 3-4 hours | 0.16 | 1.56 | 96.2
concentration: 4.5 (µM), S9 metabolic activation: without S9, exposure time: 24 hours | 0.64 | 1.4 | 107
concentration: 5.63 (µM), S9 metabolic activation: with S9, exposure time: 3-4 hours | 0.22 | 1.36 | 98.5
concentration: 5.63 (µM), S9 metabolic activation: without S9, exposure time: 24 hours | 0.62 | 1.44 | 108
concentration: 7.04 (µM), S9 metabolic activation: with S9, exposure time: 3-4 hours | 0.3 | 0.96 | 93
concentration: 7.04 (µM), S9 metabolic activation: without S9, exposure time: 24 hours | 0.78 | 1.22 | 112
concentration: 8.8 (µM), S9 metabolic activation: with S9, exposure time: 3-4 hours | 0.22 | 1.22 | 107
concentration: 8.8 (µM), S9 metabolic activation: without S9, exposure time: 24 hours | 0.72 | 1.36 | 111
concentration: 11 (µM), S9 metabolic activation: with S9, exposure time: 3-4 hours | 0.08 | 1.26 | 71.7
concentration: 11 (µM), S9 metabolic activation: without S9, exposure time: 24 hours | 0.7 | 1.34 | 118
concentration: 13.7 (µM), S9 metabolic activation: with S9, exposure time: 3-4 hours | 0.1 | 1.2 | 84.1
concentration: 13.7 (µM), S9 metabolic activation: without S9, exposure time: 24 hours | 0.76 | 1.8 | 102
concentration: 17.2 (µM), S9 metabolic activation: with S9, exposure time: 3-4 hours | 0.14 | 1.48 | 101
concentration: 17.2 (µM), S9 metabolic activation: without S9, exposure time: 24 hours | 0.54 | 1.54 | 104
concentration: 21.5 (µM), S9 metabolic activation: with S9, exposure time: 3-4 hours | 0.12 | 1.24 | 125
concentration: 21.5 (µM), S9 metabolic activation: without S9, exposure time: 24 hours | 0.48 | 1.42 | 113
concentration: 26.8 (µM), S9 metabolic activation: with S9, exposure time: 3-4 hours | 0.1 | 0.98 | 102
concentration: 26.8 (µM), S9 metabolic activation: without S9, exposure time: 24 hours | 0.58 | 2.32 | 110
concentration: 33.6 (µM), S9 metabolic activation: with S9, exposure time: 3-4 hours | 0.26 | 0.98 | 92.7
concentration: 33.6 (µM), S9 metabolic activation: without S9, exposure time: 24 hours | 0.64 | 2.54 | 102
concentration: 41.9 (µM), S9 metabolic activation: with S9, exposure time: 3-4 hours | 0.12 | 0.9 | 95.5
concentration: 41.9 (µM), S9 metabolic activation: without S9, exposure time: 24 hours | 0.64 | 3 | 99.2
concentration: 52.4 (µM), S9 metabolic activation: with S9, exposure time: 3-4 hours | 0.14 | 1.14 | 101
concentration: 52.4 (µM), S9 metabolic activation: without S9, exposure time: 24 hours | 0.88 | 2.64 | 96
concentration: 65.5 (µM), S9 metabolic activation: with S9, exposure time: 3-4 hours | 0.14 | 1.14 | 74.8
concentration: 65.5 (µM), S9 metabolic activation: without S9, exposure time: 24 hours | 0.66 | 1.84 | 85.2
concentration: 81.9 (µM), S9 metabolic activation: with S9, exposure time: 3-4 hours | 0.16 | 1.22 | 105
concentration: 81.9 (µM), S9 metabolic activation: without S9, exposure time: 24 hours | 0.78 | 1.62 | 96.5
concentration: 102 (µM), S9 metabolic activation: with S9, exposure time: 3-4 hours | 0.18 | 1 | 69.1
concentration: 102 (µM), S9 metabolic activation: without S9, exposure time: 24 hours | 0.52 | 2.2 | 94.2
concentration: 128 (µM), S9 metabolic activation: with S9, exposure time: 3-4 hours | 0.24 | 0.94 | 92.1
concentration: 128 (µM), S9 metabolic activation: without S9, exposure time: 24 hours | 0.76 | 2.04 | 91.7
concentration: 160 (µM), S9 metabolic activation: with S9, exposure time: 3-4 hours | 0.26 | 1.06 | 72.6
concentration: 160 (µM), S9 metabolic activation: without S9, exposure time: 24 hours | 0.94 | 2.56 | 105
concentration: 200 (µM), S9 metabolic activation: with S9, exposure time: 3-4 hours | 0.16 | 0.96 | 77.4
concentration: 200 (µM), S9 metabolic activation: without S9, exposure time: 24 hours | 0.84 | 2.2 | 103

CCCC(=O)O [Butanoic acid]
Details | hypodiploid nuclei frequency, CHO-K1 [1] [%] | micronucleus frequency, CHO-K1 [2] [%] | relative survival, CHO-K1 [3]
concentration: 4.5 (µM), S9 metabolic activation: with S9, exposure time: 3-4 hours | 0.24 | 1.9 | 142
concentration: 4.5 (µM), S9 metabolic activation: without S9, exposure time: 24 hours | 0.54 | 1.68 | 108
concentration: 5.63 (µM), S9 metabolic activation: with S9, exposure time: 3-4 hours | 0.24 | 1.58 | 173
concentration: 5.63 (µM), S9 metabolic activation: without S9, exposure time: 24 hours | 0.62 | 1.72 | 89.2
concentration: 7.04 (µM), S9 metabolic activation: with S9, exposure time: 3-4 hours | 0.26 | 0.86 | 153
concentration: 7.04 (µM), S9 metabolic activation: without S9, exposure time: 24 hours | 0.76 | 1.84 | 91.7
concentration: 8.8 (µM), S9 metabolic activation: with S9, exposure time: 3-4 hours | 0.16 | 1.52 | 164
concentration: 8.8 (µM), S9 metabolic activation: without S9, exposure time: 24 hours | 0.36 | 2.08 | 138
concentration: 11 (µM), S9 metabolic activation: with S9, exposure time: 3-4 hours | 0.28 | 1.08 | 126
concentration: 11 (µM), S9 metabolic activation: without S9, exposure time: 24 hours | 0.52 | 1.52 | 108
concentration: 13.7 (µM), S9 metabolic activation: with S9, exposure time: 3-4 hours | 0.22 | 1.06 | 128
concentration: 13.7 (µM), S9 metabolic activation: without S9, exposure time: 24 hours | 0.64 | 1.44 | 114
concentration: 17.2 (µM), S9 metabolic activation: with S9, exposure time: 3-4 hours | 0.16 | 1.22 | 135
concentration: 17.2 (µM), S9 metabolic activation: without S9, exposure time: 24 hours | 0.36 | 1.48 | 102
concentration: 21.5 (µM), S9 metabolic activation: with S9, exposure time: 3-4 hours | 0.3 | 1.16 | 133
concentration: 21.5 (µM), S9 metabolic activation: without S9, exposure time: 24 hours | 0.52 | 1.08 | 123
concentration: 26.8 (µM), S9 metabolic activation: with S9, exposure time: 3-4 hours | 0.12 | 1.64 | 154
concentration: 26.8 (µM), S9 metabolic activation: without S9, exposure time: 24 hours | 0.42 | 1.54 | 142
concentration: 33.6 (µM), S9 metabolic activation: with S9, exposure time: 3-4 hours | 0.18 | 1.16 | 130
concentration: 33.6 (µM), S9 metabolic activation: without S9, exposure time: 24 hours | 0.56 | 1.9 | 112
concentration: 41.9 (µM), S9 metabolic activation: with S9, exposure time: 3-4 hours | 0.3 | 0.88 | 120
concentration: 41.9 (µM), S9 metabolic activation: without S9, exposure time: 24 hours | 0.46 | 1.26 | 119
concentration: 52.4 (µM), S9 metabolic activation: with S9, exposure time: 3-4 hours | 0.26 | 1.1 | 144
concentration: 52.4 (µM), S9 metabolic activation: without S9, exposure time: 24 hours | 0.7 | 1.34 | 119
concentration: 65.5 (µM), S9 metabolic activation: with S9, exposure time: 3-4 hours | 0.2 | 0.96 | 150
concentration: 65.5 (µM), S9 metabolic activation: without S9, exposure time: 24 hours | 0.38 | 1.26 | 109
concentration: 81.9 (µM), S9 metabolic activation: with S9, exposure time: 3-4 hours | 0.24 | 1.04 | 155
concentration: 81.9 (µM), S9 metabolic activation: without S9, exposure time: 24 hours | 0.52 | 1.3 | 152
concentration: 102 (µM), S9 metabolic activation: with S9, exposure time: 3-4 hours | 0.28 | 1.24 | 149
concentration: 102 (µM), S9 metabolic activation: without S9, exposure time: 24 hours | 0.62 | 1.46 | 117
concentration: 128 (µM), S9 metabolic activation: with S9, exposure time: 3-4 hours | 0.18 | 0.96 | 140
concentration: 128 (µM), S9 metabolic activation: without S9, exposure time: 24 hours | 0.66 | 1.42 | 113
concentration: 160 (µM), S9 metabolic activation: with S9, exposure time: 3-4 hours | 0.2 | 0.94 | 147
concentration: 160 (µM), S9 metabolic activation: without S9, exposure time: 24 hours | 0.6 | 1.38 | 106
concentration: 200 (µM), S9 metabolic activation: with S9, exposure time: 3-4 hours | 0.16 | 1.1 | 118
concentration: 200 (µM), S9 metabolic activation: without S9, exposure time: 24 hours | 0.86 | 2.1 | 101
